{"source": "ChEMBL document CHEMBL1157539", "about": "“Thousands of chemical starting points for antimalarial lead identification” (Nature, 2010)", "note": "“And” between values parts separate entries of the source, which are not always exact repeats. Equal values may be shown once. Over roughly 13,000 compounds, “IFI” has its median near 4; the highest 2% begin near 17. Some of the results follow.", "data": [{"assay": "GSK_TCMDC: Inhibition Frequency Index (IFI). The number of non-kinase HTS assays where a compound showed > 50 % inhibition, expressed as a percentage of the number of such assays in which the compound was tested (-0 is zero)", "assay_type": "functional", "values": [{"smiles": "COCCNCc1ccc(-c2cccc(CNc3ccc(OC)cc3)c2)cc1", "IFI": "0.73%"}, {"smiles": "Nc1nc(N)c2c(Cc3ccccc3)cccc2n1", "IFI": "5.88%"}, {"smiles": "CC(C)(C)CC(C)(C)c1ccc(O)c(C(=O)Nc2cccc([N+](=O)[O-])c2)c1", "IFI": "12.9%"}, {"smiles": "CCc1cc(C(=O)c2cccc(C)c2)c(NC(=O)CN2CCN(C(=O)c3ccco3)CC2)s1", "IFI": "1.44%"}, {"smiles": "COc1cccc(Nc2nccc(NCC(O)c3ccc(C(F)(F)F)cc3)n2)c1", "note": "(stereo not given)", "IFI": "7.77%"}, {"smiles": "CCOc1cc(Cc2cnc(N)nc2N)ccc1OC", "IFI": "2.92%"}, {"smiles": "N#Cc1ccc2c(c1)CCN(CCC1CCC(NC(=O)Nc3cnc4ccccc4c3)CC1)C2", "note": "(stereo not given)", "IFI": "2.33%"}, {"smiles": "Cc1ccc([S+]([O-])Cc2ccc(Cl)cc2)cc1", "note": "(stereo not given)", "IFI": "-0%"}, {"smiles": "COc1ccc(-c2cc(C(=O)N[C@@H](CC3CCCCC3)C(=O)NCCN3CCCC3)ccc2O)cc1", "IFI": "3.45%"}, {"smiles": "COc1cc(Cc2cnc(N)nc2N)cc(OC)c1OC", "IFI": "2.26%"}, {"smiles": "COc1ccccc1CCN(C)CCN1CCC(NC(=O)c2ccc(-c3ccc(C(F)(F)F)cc3)cc2)CC1", "IFI": "6.19%"}, {"smiles": "CCNc1cc(C(=O)N[C@@H](Cc2ccccc2)[C@H](O)CNC(C)CC(C)C)c(F)c(N2CCCCS2(=O)=O)c1", "note": "(stereo not given in full)", "IFI": "0.7%"}, {"smiles": "O=C(Nc1cccc(CN2CCN(Cc3cccc(O)c3)CC2)c1)c1cc2ccccc2s1", "IFI": "2.8%"}, {"smiles": "CC(C)N1CCC(N(Cc2ccc(-c3ccc(C(F)(F)F)cc3)cc2)C(=O)Cn2c(CCc3cccc(F)c3F)cc(=O)c3ccccc32)CC1", "IFI": "6.43%"}, {"smiles": "CC(CN1CCN(C)CC1)C(=O)Nc1ccc(-c2ccc(-c3nc4cc(F)ccc4[nH]3)cc2)cc1", "note": "(stereo not given)", "IFI": "4.35%"}, {"smiles": "CN1CCC(NCc2ccc(S(=O)(=O)Nc3ccc(Oc4cccc(Cl)c4)cc3)cc2)CC1", "IFI": "11.2%"}, {"smiles": "Cc1cnc(C(=O)Nc2cccc(-c3cccc(-c4nc5cccc(C)c5[nH]4)c3)c2)cn1", "IFI": "1.79%"}, {"smiles": "Cc1cc(C)c2cc(CNCCCNc3nc4ccccc4[nH]3)[nH]c2c1", "IFI": "7.04%"}, {"smiles": "CC(C)CCN1CCC(Oc2ccc(NC(=O)c3ccc(F)cc3)cc2Cl)CC1", "IFI": "6.45%"}, {"smiles": "Nc1nc(N)c2c(CCc3ccc4ccccc4c3)cccc2n1", "IFI": "7.53%"}, {"smiles": "CS(=O)(=O)NCCCNCc1ccc(-c2ccc(-c3nc4cc(C(F)(F)F)ccc4[nH]3)s2)cc1", "IFI": "4.95%"}, {"smiles": "c1ccc2c(c1)CN(Cc1cc3ccccc3[nH]1)CC1(CCN(Cc3c[nH]c4cnccc34)CC1)O2", "IFI": "11.1%"}, {"smiles": "COc1cc(C(=O)Nc2nc3ccccc3[nH]2)ccc1OCC(=O)Nc1cccc(C(F)(F)F)c1", "IFI": "4.04%"}, {"smiles": "CN1CCC(N2CCN(Cc3cccc(-c4ccc(-c5nc6ccccc6[nH]5)cc4)c3)CC2)CC1", "IFI": "5.63%"}, {"smiles": "Brc1ccc(Nc2ccnc3cc(-c4nccs4)ccc23)cc1Oc1ccnc2cc(-c3nccs3)ccc12", "IFI": "3.52%"}, {"smiles": "CN1CCC(NCc2ccc(-c3cccc(S(=O)(=O)NCC4CCCO4)c3)cc2)CC1", "note": "(stereo not given)", "IFI": "1.94%"}, {"smiles": "O=C1CSc2ccc(CNC3CCN(CCc4c(Cl)cnc5ccc(Cl)cc45)CC3)nc2N1", "IFI": "2.31%"}, {"smiles": "CCC(CC(NCCCCNC(=O)c1ccc(NC(=O)c2ccc(Cl)cc2)cc1)c1ccccc1)c1ccccc1OC", "note": "(stereo not given)", "IFI": "7.35% and 1.48%"}, {"smiles": "O=S(=O)(Nc1ccc(CCN2CCC(N3CCCCC3)CC2)cc1)c1ccc(Cl)cc1", "IFI": "4.84%"}, {"smiles": "COc1ccc2[nH]c(C)cc(=NN=Cc3ccccc3)c2c1", "IFI": "-0%"}, {"smiles": "CC(C)(C)c1ccc(OCCCON2C(N)=NC(N)=NC2(C)C)cc1", "IFI": "18.1%"}, {"smiles": "O=C(NCCc1ccccc1)N(Cc1ccccc1-c1ccc(CNCCc2ccccc2)cc1)C1CCN(Cc2ccccc2)CC1", "IFI": "7.86%"}, {"smiles": "CN(c1ccc(NC(=O)Nc2cc(C(C)(C)C)on2)cc1)c1ccnc(NCCN2CCOCC2)n1", "IFI": "10.3%"}, {"smiles": "c1ccc(Oc2ccc(Nc3ccnc(Nc4cccc(CNCCCN5CCOCC5)c4)n3)cc2)cc1", "IFI": "7.41%"}, {"smiles": "CC(=O)Nc1cccc(C(=O)Nc2cccc(-c3ccc(-c4nc5cccc(C)c5[nH]4)s3)c2)c1", "IFI": "7.41%"}, {"smiles": "O=C(CCCCCNC(=O)c1ccc(O)c(-c2ccc(Cl)c(Cl)c2)c1)NCc1cccc(C(F)(F)F)c1", "IFI": "2.94%"}, {"smiles": "O=C(/C=C/c1ccc(-c2nc3ccc(Cl)cc3[nH]2)cc1)NCc1cccc(F)c1", "IFI": "5.07%"}, {"smiles": "CCOc1cc(C(=O)NC2CCN(Cc3ccccc3)CC2)ccc1-c1nc2cc(Cl)c(F)cc2[nH]1", "IFI": "-0%"}, {"smiles": "O=C(NC1CCN(CCN2CCC(c3cn(CCO)c4ccccc34)CC2)CC1)c1ccc(-c2ccc(C(F)(F)F)cc2)cc1", "IFI": "4.63%"}, {"smiles": "CCOc1ccc(CNCCCCCCNCc2ccc(OCC)c3ccccc23)c2ccccc12", "IFI": "15.4%"}, {"smiles": "Nc1ccc(-c2nc3c(ccc4ccccc43)[nH]2)cc1", "IFI": "3.51%"}, {"smiles": "O=c1cc(NCCCNCc2scc(I)c2I)[nH]c2ccccc12", "IFI": "5%"}, {"smiles": "COc1ccccc1NC(=O)Nc1cccc(-c2ccc(-c3nc4cccc(C)c4[nH]3)s2)c1", "IFI": "2.97%"}, {"smiles": "O=S(=O)(NCCN1CCCC1)c1ccc(-c2ccc(CNCc3ccccc3)cc2)s1", "IFI": "7.84%"}, {"smiles": "Cc1cc(C)c(CON2C(=N)N=C(N)NC2(C)C)cc1C", "IFI": "3.57%"}]}]}
